The results in this text go back to ChEMBL document CHEMBL4888484, “Replenishing the malaria drug discovery pipeline: Screening and hit evaluation of the MMV Hit Generation Library 1 (HGL1) against asexual blood stage Plasmodium falciparum ,using a nano luciferase reporter read-out” (2022).

Each structure is given as a SMILES string. Hit rate of the full screen: of about 150,000 compounds, about 540 (0.36%) showed an effect of 50% or more. This is one part of the list.

The test system of the experiment is Plasmodium falciparum. The experiment can be described thus: Primary screen in NF54 nanoGlo assay, in single point, at 2uM, 72h; a lower Z score goes with more inhibition. The experiment is classed as functional, Erythrocyte. The conditions noted are these: timepoint 72 hour.
For `C[C@](O)(CNC(=O)Cc1ccc(F)cc1)C1CC1`, the % Inhibition (usually the relative decrease from the control value, in per cent) is on record as -10% and the Z score turned out to be 1.71.

For `Cn1c(NC(=O)c2ccc(F)cc2)c(-c2ccccn2)c(=O)c2ccccc21`, the “% Inhibition” value is on record as -12% and the Z score turned out to be 1.54.

For `CC(C)CN(C1CCOCC1)C1CN(C(=O)Nc2ccccc2)C1`, the “% Inhibition” value is recorded as -1% and the Z score is given as 0.17.

Consider `C[C@H]1C(=O)NCCCN1C(=O)c1scnc1C(F)(F)F`, for which the “% Inhibition” value is reported as -8% and the Z score is 0.93.

`CC(C)C[C@H]1COCCN1CCn1nc2ccccn2c1=O`: the “% Inhibition” value was -11% and the Z score turned out to be 1.68.

For `CC(C)c1noc([C@@H]2CCCN2S(=O)(=O)c2ccc3c(c2)OCCO3)n1`, the “% Inhibition” value turned out to be 2% and the Z score was -0.45.

As to `CCC(=O)Nc1ccc(Cl)cc1Cl`, the “% Inhibition” value is -14% and the Z score amounted to 1.89.

As for `COc1ccc(C2CC2)cc1CNC(=O)c1cc2n(n1)CCO2`, the “% Inhibition” value is given as -5% and the Z score was 0.8.

For the molecule `Cc1cc(NC(=O)[C@H]2CCCN(S(=O)(=O)c3cccs3)C2)on1`, the “% Inhibition” value is listed as 3% and the Z score is reported as -0.39.

For `CC(C)Cn1ccnc1CN1C(=O)NC2(CC2)C1=O`, the “% Inhibition” value is listed as 1% and the Z score is reported as -0.18.

Take `Cn1cccc(C(=O)NC2(Cc3ccc(Cl)cc3)CC2)c1=O`: the “% Inhibition” value is reported as -5% and the Z score stood at 0.96.

Turning to `Cc1nsc(N2CCN(Cc3ccn(C)n3)CC2)c1C#N`, the “% Inhibition” value is -9% and the Z score worked out at 1.18.

As to `O=C1NCCCCCCN(S(=O)(=O)c2cccc(F)c2)[C@H]2CCC[C@@H]12`, the “% Inhibition” value is -6% and the Z score was 0.74.

For `Cc1cc(NC(=O)Nc2cc(C3CC3C)n[nH]2)ccn1` (stereo unspecified), the “% Inhibition” value is -15% and the Z score amounted to 3.05.

As for `CN(c1ncnc2cccc(F)c12)[C@H](c1ccc(F)cc1)C1CC1`, the “% Inhibition” value is reported as -16% and the Z score was 2.96.

For the molecule `CCn1c(C)cc(C(=O)CS(=O)(=O)Cc2ccc(F)cc2Cl)c1C`, the “% Inhibition” value was -5% and the Z score was 0.89.

For the molecule `Cc1ccnc(N(C(=O)c2sccc2C)C(=O)c2sccc2C)c1`, the “% Inhibition” value was 6% and the Z score was -1.03.

For `Cn1cc([C@H]2CCCN(C(=O)CC3CCN(C(=O)OC(C)(C)C)CC3)C2)cn1`, the “% Inhibition” value is -10% and the Z score is on record as 1.99.

For the molecule `CCN1CCCN(Cc2cc3cccnc3o2)CC1=O`, the “% Inhibition” value was -5% and the Z score was determined as 0.46.

On to `O=C1O[C@H]2CN(C3CCCC3)C[C@H]2N1CCc1cccc(Cl)c1`, for which the “% Inhibition” value was -13% and the Z score is 1.15.

As for `CC(=O)N1CCC(CNC(=O)OC(C)(C)C)CC1`, the “% Inhibition” value was -8% and the Z score was determined as 1.06.

Consider `COc1cc(Nc2nc(=O)[nH]nc2C)c(OC)cc1Cl`, for which the “% Inhibition” value was -8% and the Z score came to 1.14.

`CN(C)c1cnn(CC(=O)NCc2ccc3c(c2)OCO3)c(=O)c1`: the “% Inhibition” value is -10% and the Z score amounted to 1.76.

Take `O=S(=O)(Nc1cccc2[nH]ncc12)N1CCCCC1`: the “% Inhibition” value was -6% and the Z score stood at 1.18.

With `CC(C)COCC(C)NC(=O)C1CCCCC1C(=O)N1CCCC1` (stereo unspecified), the “% Inhibition” value is given as -15% and the Z score is reported as 2.08.

With `O=C(CN1CCCc2c(Cl)cc(Cl)cc21)N1CCNC1=O`, the “% Inhibition” value is on record as 5% and the Z score is -1.03.

As for `Cn1c(CN2CCCCCC2)nnc1C1CCN(c2ccncc2F)CC1`, the “% Inhibition” value is given as -9% and the Z score is reported as 1.8.

Take `Cc1ccc(NC(=O)NC2C3CCC(C3)C2CO)s1` (stereo unspecified): the “% Inhibition” value is recorded as -12% and the Z score is given as 2.28.

As for `CN(C[C@H]1CCCN1C)c1nc(-c2ccccc2)no1`, the “% Inhibition” value was -16% and the Z score is 2.98.

As for `C[C@H](NCCN1CCc2ccccc2C1)c1cc(CO)on1`, the “% Inhibition” value is -15% and the Z score turned out to be 2.19.

For the molecule `CCCn1c(=O)c(N2CCN(C(=O)c3ccc(F)c(Cl)c3)CC2)nc2ccccc21`, the “% Inhibition” value is recorded as -9% and the Z score is given as 1.65.

`O=S(=O)(NCC1(CO)CCOCC1)c1cccnc1`: the “% Inhibition” value is -11% and the Z score was 2.06.

`CN1CCC(CCNS(=O)(=O)CC2CCCC2)CC1`: the “% Inhibition” value is recorded as -27% and the Z score worked out at 2.73.

Regarding `CCc1nnc(-c2ccc3ccn(CC(=O)N4CCN(c5ccc(F)cc5)CC4)c3c2)o1`, the “% Inhibition” value is reported as 4% and the Z score is -0.45.

Regarding `Cc1nccc(NC(=O)NCc2cccs2)c1Cl`, the “% Inhibition” value is on record as -17% and the Z score was found to be 1.4.

`Cc1cnc2c(c1)N(C(=O)c1ccc(C(F)(F)F)nc1)CCO2`: the “% Inhibition” value turned out to be 4% and the Z score is reported as -0.51.

As to `CCOC(=O)c1cc(F)cc(S(=O)(=O)Nc2ccnc3ncnn23)c1`, the “% Inhibition” value is listed as 35% and the Z score is on record as -5.1.

For `O=C1CC[C@@H](c2ccc(OCc3nnc4n3CCCCC4)cc2)N1`, the “% Inhibition” value is listed as -10% and the Z score was determined as 1.45.

As to `O=C(Cn1cnc2ccccc21)Nc1ccc2c(c1)CCC2`, the “% Inhibition” value is reported as 2% and the Z score was -0.33.

As to `CC(C)(CC(=O)O)NCc1ccc(Cl)c(F)c1`, the “% Inhibition” value is on record as -9% and the Z score is 1.11.

For `C[C@H](NCc1ncn(-c2ccccc2)n1)C1CCOCC1`, the “% Inhibition” value was -2% and the Z score stood at 0.34.

For `Cc1ccsc1CN1C[C@H](NC(=O)CCO)[C@@H](C2CC2)C1`, the “% Inhibition” value is listed as -16% and the Z score was 1.44.

With `CC(=O)N1CCN(C(=O)CCc2cccc(F)c2)C[C@@H](O)C1`, the “% Inhibition” value was 4% and the Z score was -0.67.
